# Results as given in PubChem BioAssay (Tox21).
# Where “and” joins values, the source holds several entries; their conditions need not be identical. Identical values can stand only once. The inconclusive results got no clear call from the source; some entries with a clear call stand among them for comparison. For some of these results: Potencies beside an inconclusive call are fits to weak or partial responses and may not hold up. Calls of active or inactive are those of the source. Unless noted, calls follow the shape of the full dose curve.
# Legend:
# [1] = qHTS assay for small molecule activators of the heat shock response signaling pathway (AID 743210; active = well fitted activation curve with a large enough effect in the signal ratio in the repeat runs, with a control signal flat, not every such curve was filed as active; inconclusive = weak or mixed curves; the % refers to the signal ratio; also: potency is read from the fitted curve at half-maximal effect; as to activation: % is scaled to controls: 0 for no effect and ±100 for the full control effect); conditions: HeLa HSE-bla reporter, beta-lactamase ratio, 5 h; activation: at 62.6 µM (top of the series) unless noted
# In short: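 Compound exposure lasted 5 h at 37 C in HeLa cells carrying a heat-shock-element-driven beta-lactamase reporter. Read-out: fluorescence intensity after 2.5 h room-temperature loading with LiveBLAzer B/G FRET substrate.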
# [2] = qHTS assay to identify small molecule agonists of the AP-1 signaling pathway (AID 1159526); conditions: ME-180 (cervical carcinoma) AP-1-bla reporter, beta-lactamase FRET ratio, 5 h; activation: at 76.8 µM (top of the series) unless noted; also: potency is read from the fitted curve at half-maximal effect
# [3] = qHTS assay for small molecule activators of the heat shock response signaling pathway - cell viability counter screen (AID 743209; active = well fitted curve in the direction sought with a large enough effect in the repeat runs; inconclusive = weak or mixed curves; inactive = no such curve, though single readings can be large; an effect the other way counts as inactive or inconclusive; also: % is scaled to controls: 0 for no effect and ±100 for the full control effect; nearly all actives have a fitted effect of over 50% in size); conditions: HSE-bla HeLa viability, CellTiter-Glo luminescence, 5 h; activity change, negative = cytotoxicity: at 62.6 µM (top of the series)
# In short: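 Same-well multiplex: after 2.5 h room-temperature incubation with LiveBLAzer B/G substrate and fluorescence reading, CellTiter-Glo reagent was added to HSE-bla HeLa cells that had received compound for 5 h at 37 C; luminescence read after 30 min.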
# [4] = biological target: Peroxisome proliferator-activated receptor delta (Homo sapiens) (UniProt Q03181); test: qHTS assay to identify small molecule agonists of the peroxisome proliferator-activated receptor delta (PPARd) signaling pathway (AID 743212); conditions: HEK293H PPARd-UAS-bla, beta-lactamase FRET ratio, 17 h; activation: at 62.6 µM (top of the series) unless noted;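 also: HEK293H cells with PPARd UAS beta-lactamase reporter GeneBLAzer system; % is scaled to controls: 0 for no effect and ±100 for the full control effect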
# Sequence of UniProt Q03181 (Q03181 whole entry, looked up): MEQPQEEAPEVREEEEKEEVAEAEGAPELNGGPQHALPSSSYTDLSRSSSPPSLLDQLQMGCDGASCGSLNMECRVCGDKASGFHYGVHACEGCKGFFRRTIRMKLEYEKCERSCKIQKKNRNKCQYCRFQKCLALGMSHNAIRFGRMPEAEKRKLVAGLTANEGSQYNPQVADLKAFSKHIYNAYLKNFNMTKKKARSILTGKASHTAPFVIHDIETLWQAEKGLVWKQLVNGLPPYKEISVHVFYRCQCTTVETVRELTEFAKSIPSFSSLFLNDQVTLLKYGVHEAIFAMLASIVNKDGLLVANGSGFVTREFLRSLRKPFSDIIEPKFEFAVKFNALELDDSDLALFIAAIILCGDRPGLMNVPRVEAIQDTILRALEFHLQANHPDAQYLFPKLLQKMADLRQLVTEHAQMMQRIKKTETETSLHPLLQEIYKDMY
# In short: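 Beta-lactamase reporter readout: a ratiometric FRET signal from the LiveBLAzer substrate after 2 h at room temperature. Compound exposure at 37 °C in PPARδ-bla HEK293H cells driven by an upstream activator sequence.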
# [5] = qHTS assay for small molecule agonists of the antioxidant response element (ARE) signaling pathway - cell viability counter screen (AID 743203); conditions: ARE-bla HepG2 viability, CellTiter-Glo luminescence, 16 h; viability change, negative = cytotoxic: at 73.3 µM (top of the series); also: nearly all actives have a fitted effect of over 55% in size; also: potency is read from the fitted curve at half-maximal effect
# In short: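 Measured in the same wells as the beta-lactamase ARE reporter, this read-out is CellTiter-Glo luminescence from HepG2 ARE-bla cells given compounds for 16 hrs.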
# [6] = qHTS assay to identify small molecule agonists of the peroxisome proliferator-activated receptor delta (PPARd) signaling pathway - cell viability counter screen (AID 743211; active = well fitted curve in the direction sought with a large enough effect in the repeat runs; inconclusive = weak or mixed curves; inactive = no such curve, though single readings can be large; an effect the other way counts as inactive or inconclusive; also: nearly all actives have a fitted effect of over 55% in size; also: potency is read from the fitted curve at half-maximal effect); conditions: PPARd-bla HEK293H viability, CellTiter-Glo luminescence, 17 h; activity change, negative = cytotoxicity: at 62.6 µM (top of the series)
# In short: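 Tox21 library compounds, delivered in DMSO, were incubated 17 h with PPARd-bla HEK293H cells; cytotoxicity was taken from CellTiter-Glo luminescence read 30 min after reagent addition.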
# [7] = biological target: Vitamin D3 receptor (Homo sapiens) (UniProt P11473); test: qHTS assay to identify small molecule agonists of the vitamin D receptor (VDR) signaling pathway (AID 743222); conditions: HEK293T VDR-UAS-bla, beta-lactamase FRET ratio, 16 h; activation: at 63.5 µM (top of the series) unless noted; also: potency is read from the fitted curve at half-maximal effect
# Sequence of UniProt P11473 (P11473 whole entry, looked up): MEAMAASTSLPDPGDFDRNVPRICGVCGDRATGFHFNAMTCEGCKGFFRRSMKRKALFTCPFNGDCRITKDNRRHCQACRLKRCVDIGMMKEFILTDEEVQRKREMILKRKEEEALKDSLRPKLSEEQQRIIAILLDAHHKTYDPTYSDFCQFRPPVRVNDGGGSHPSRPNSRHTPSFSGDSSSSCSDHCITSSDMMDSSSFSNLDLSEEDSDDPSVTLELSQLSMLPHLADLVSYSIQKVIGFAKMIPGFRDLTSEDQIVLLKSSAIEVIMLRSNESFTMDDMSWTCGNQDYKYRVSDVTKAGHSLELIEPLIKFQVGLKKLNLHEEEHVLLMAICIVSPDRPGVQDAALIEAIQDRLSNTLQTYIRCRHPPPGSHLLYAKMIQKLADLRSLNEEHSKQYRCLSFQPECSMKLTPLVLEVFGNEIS
# In short: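 Following 4 h attachment at 37C, VDR-bla cells (2,000 per well) received DMSO-dissolved compounds or controls. After 16 h incubation, LiveBLAzer B/G FRET substrate was added and fluorescence read 2 h later at room temperature.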
# [8] = qHTS assay to identify small molecule agonists of the vitamin D receptor (VDR) signaling pathway - cell viability counter screen (AID 743224; active = well fitted curve in the direction sought with a large enough effect in the repeat runs; inconclusive = weak or mixed curves; inactive = no such curve, though single readings can be large; an effect the other way counts as inactive or inconclusive; also: nearly all actives have a fitted effect of over 50% in size; also: potency is read from the fitted curve at half-maximal effect); conditions: VDR-bla HEK293T viability, CellTiter-Glo luminescence, 16 h; activity change, negative = cytotoxicity: at 62.6 µM (top of the series)
# In short: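 In parallel with the bla FRET readout, cytotoxicity toward VDR-bla cells after 16 h compound exposure was assessed by CellTiter-Glo, with luminescence recorded after a 30 min room-temperature incubation.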
# [9] = qHTS assay to identify small molecule antagonists of the peroxisome proliferator-activated receptor delta (PPARd) signaling pathway - cell viability counter screen (AID 743213; active = well fitted curve in the direction sought with a large enough effect in the repeat runs; inconclusive = weak or mixed curves; inactive = no such curve, though single readings can be large; an effect the other way counts as inactive or inconclusive; also: potency is read from the fitted curve at half-maximal effect; nearly all actives have a fitted effect of over 50% in size); conditions: PPARd-bla HEK293H viability, CellTiter-Glo luminescence, 17 h; viability change, negative = cytotoxic: at 62 µM (top of the series) unless noted
# In short: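 In this counter screen, HEK293H cells carrying a UAS-beta-lactamase reporter are co-treated with test compounds and 300 nM L165041 (final) for 17 h at 37 C; cell viability is quantified by CellTiter-Glo luminescence.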
# [10] = qHTS assay to identify small molecule antagonists of the farnesoid-X-receptor (FXR) signaling pathway - cell viability counter screen (AID 743221; active = well fitted cell-killing curve with a large enough effect in the repeat runs, not every such curve was filed as active; inconclusive = weak or mixed curves, or effect the other way; inactive = no such curve, though single readings can be large or run the other way; also: nearly all actives have a fitted effect of over 50% in size; also: potency is read from the fitted curve at half-maximal effect); conditions: FXR-bla HEK293T viability, CellTiter-Glo luminescence, 16 h; activity change, negative = cytotoxicity: at 62.6 µM (top of the series) unless noted
# In short: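 Cytotoxicity is taken from ATP luminescence (CellTiter-Glo, 30 min, room temperature) in FXR-bla HEK 293T cells previously incubated 16 h at 37 C with compound and chenodeoxycholic acid at 50 uM final.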
# [11] = biological target: Vitamin D3 receptor (Homo sapiens) (UniProt P11473); test: qHTS assay to identify small molecule antagonists of the vitamin D receptor (VDR) signaling pathway (AID 743223; active = well fitted inhibition curve with a large enough effect in the signal ratio in the repeat runs, not every such curve was filed as active; inconclusive = weak or mixed curves, or effect the other way; inactive = no such curve, though single readings can be large or run the other way; the % refers to the signal ratio; also: potency is read from the fitted curve at half-maximal effect); conditions: VDR-UAS-bla HEK293T, beta-lactamase FRET ratio, 16 h
# In short: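 Quantitative HTS in VDR-bla reporter cells stimulated with 1alpha,25-dihydroxyvitamin D3, 3 nM final. Compound exposure 16 h, 37C, 5% CO2. Read-out: beta-lactamase FRET substrate fluorescence, 2 h RT.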
# [12] = qHTS assay to identify small molecule antagonists of the vitamin D receptor (VDR) signaling pathway - cell viability counter screen (AID 743225; active = well fitted curve in the direction sought with a large enough effect in the repeat runs; inconclusive = weak or mixed curves; inactive = no such curve, though single readings can be large; an effect the other way counts as inactive or inconclusive; also: nearly all actives have a fitted effect of over 50% in size; also: potency is read from the fitted curve at half-maximal effect); conditions: VDR-bla HEK293T viability, CellTiter-Glo luminescence, 16 h; viability change, negative = cytotoxic: at 61 µM (top of the series) unless noted
# In short: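 Same-well multiplex: following 16 h treatment of HEK 293T cells carrying a UAS-driven beta-lactamase reporter with compound and agonist (3 nM final), and a 2 h FRET substrate step, CellTiter-Glo was added and luminescence read after 30 min.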
# [13] = biological target: Peroxisome proliferator-activated receptor delta (Homo sapiens) (UniProt Q03181); test: qHTS assay to identify small molecule antagonists of the peroxisome proliferator-activated receptor delta (PPARd) signaling pathway (AID 743215; active = well fitted inhibition curve with a large enough effect in the signal ratio in the repeat runs, not every such curve was filed as active; inconclusive = weak or mixed curves, or effect the other way; inactive = no such curve, though single readings can be large or run the other way; the % refers to the signal ratio;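 also: cells stimulated with agonist L165041 at 300 nM final during compound exposure; % is scaled to controls: 0 for no effect and ±100 for the full control effect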); conditions: HEK293H PPARd-UAS-bla, beta-lactamase FRET ratio, antagonist, 17 h
# In short: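 Fluorescence from cleaved LiveBLAzer B/G FRET substrate (2 h, room temperature) reports PPARd-driven beta-lactamase in HEK293H UAS-bla cells. Cells had been treated 17 h at 37 C with compound plus 300 nM final L165041.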
# [14] = biological target: Bile acid receptor (Homo sapiens) (UniProt Q96RI1); test: qHTS assay to identify small molecule agonists of the farnesoid-X-receptor (FXR) signaling pathway (AID 743220; active = well fitted activation curve with a large enough effect in the signal ratio in the repeat runs, not every such curve was filed as active; inconclusive = weak or mixed curves, or effect the other way; the % refers to the signal ratio; also: % is scaled to controls: 0 for no effect and ±100 for the full control effect); conditions: HEK293T FXR-UAS-bla, beta-lactamase FRET ratio, 16 h; activation: at 62.6 µM (top of the series)
# Sequence of UniProt Q96RI1 (Q96RI1 whole entry, looked up): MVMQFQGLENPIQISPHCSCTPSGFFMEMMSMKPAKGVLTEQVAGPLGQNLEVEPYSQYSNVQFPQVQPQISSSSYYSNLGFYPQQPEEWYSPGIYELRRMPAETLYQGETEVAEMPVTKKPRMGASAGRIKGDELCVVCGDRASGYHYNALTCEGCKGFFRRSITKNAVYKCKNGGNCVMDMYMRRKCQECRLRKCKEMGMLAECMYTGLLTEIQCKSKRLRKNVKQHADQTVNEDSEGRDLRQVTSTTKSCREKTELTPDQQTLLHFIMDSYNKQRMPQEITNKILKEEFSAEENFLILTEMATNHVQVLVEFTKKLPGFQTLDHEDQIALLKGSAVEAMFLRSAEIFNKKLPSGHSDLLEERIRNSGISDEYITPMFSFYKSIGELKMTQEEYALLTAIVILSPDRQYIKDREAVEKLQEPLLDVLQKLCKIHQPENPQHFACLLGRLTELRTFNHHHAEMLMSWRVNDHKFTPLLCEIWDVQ
# In short: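 FXR-UAS-bla HEK 293T cells carrying a UAS-driven beta-lactamase reporter were plated for 5 h at 37C/5% CO2, then exposed to DMSO-dissolved Tox21 10K compounds for 16 h at 37C. A LiveBLAzer B/G FRET substrate was loaded for 2 h at room temperature before fluorescence reading.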
# [15] = qHTS assay to identify small molecule agonists of the farnesoid-X-receptor (FXR) signaling pathway - cell viability counter screen (AID 743218; active = well fitted curve in the direction sought with a large enough effect in the repeat runs; inconclusive = weak or mixed curves; inactive = no such curve, though single readings can be large; an effect the other way counts as inactive or inconclusive; also: nearly all actives have a fitted effect of over 45% in size; also: potency is read from the fitted curve at half-maximal effect); conditions: FXR-bla HEK293T viability, CellTiter-Glo luminescence, 16 h; viability change, negative = cytotoxic: at 62.6 µM (top of the series) unless noted
# In short: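 Readout: CellTiter-Glo luminescence, 30 min RT, multiplexed after the FXR-bla FRET reading. HEK 293T FXR-UAS-bla cells received compound 5 h post-plating and were incubated 16 h at 37 C.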
# [16] = qHTS assay for small molecule agonists of the antioxidant response element (ARE) signaling pathway (AID 743202; active = well fitted activation curve with a large enough effect in the signal ratio in the repeat runs, not every such curve was filed as active; inconclusive = weak or mixed curves, or effect the other way; inactive = no such curve, though single readings can be large or run the other way; the % refers to the signal ratio; also: potency is read from the fitted curve at half-maximal effect); conditions: HepG2 ARE-bla reporter, beta-lactamase FRET, 16 h; activation: at 73.3 µM (top of the series) unless noted
# In short: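 After 16 hours of compound treatment at 37 C, HepG2 cells with a stably integrated ARE-driven beta-lactamase reporter were loaded 2 hours at room temperature with LiveBLAzer B/G FRET substrate and fluorescence intensity measured.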
# [17] = activity change, negative = inhibition: at 61 µM (top of the series) unless noted
# Tags tell the direction and shape of the fitted curve or compound fluorescence and quenching.
compound,measurement,setting,value
CNCCC(Oc1ccccc1OC)c1ccccc1 (stereo unspecified),Potency,[1],inactive
same,Potency,[2],inconclusive: 23.9 µM [activator]
C[C@@H](O)[C@H]1C(=O)N2C(C(=O)O)=C(SCCN=CN)C[C@H]12,"activity change, negative = cytotoxicity",[3],inconclusive: -28.4% [cytotoxic]
same,Potency,[1],inactive
same,Potency,[4],inactive
same,Potency,[2],inactive
CC(O)CN(CCCN(C)C)CCCN(C)C (stereo unspecified),Potency,[5],"inconclusive: 0.0273 µM [rising, full curve, poor fit]"
same,Potency,[2],inactive
COC(=O)C1CC(=O)C(C(=O)OC)CC1=O (stereo unspecified),Potency,[1],inconclusive: 3.03 µM [activator]
same,"activity change, negative = cytotoxicity",[6],inactive: -4.27% [at 5.95 µM]
same,activation,[7],inconclusive: -27.8% [at 6.01 µM]
same,Potency,[8],"inconclusive: 3.4 µM [cytotoxic, single point]"
same,activation,[2],inactive: 1.04% [at 6.97 µM]
C=C(C)C(=O)OCCOCC,Potency,[5],inactive
same,Potency,[2],active: 49.2 µM
C1=CCC(c2ccccc2)CC1 (stereo unspecified),Potency,[5],inactive
same,Potency,[2],inactive
c1cc(CN2CCCCC2)cc(OCCCNc2nc3ccccc3s2)c1,Potency,[1],inactive
same,Potency,[6],inconclusive: 21.1 µM [cytotoxic]
same,activation,[4],inconclusive: 1.11%
same,Potency,[9],"inconclusive: 2.98 µM [cytotoxic, single point]"
same,Potency,[10],inactive
same,Potency,[11]; [17],"inconclusive: 19 µM [activator, partial curve]"
same,Potency,[12],"inconclusive: 2.39 µM [cytotoxic, single point]"
same,Potency,[2],active: 26.8 µM
C[C@]12C(=O)OC(=O)[C@H]1[C@H]1C=C[C@@H]2C1,Potency,[3],inactive
same,Potency,[9],"inconclusive: 1.24 µM [cytotoxic, single point]"
same,"ratio activity, negative = inhibition","[13]; ratio activity, negative = inhibition: at 62 µM (top of the series) unless noted",inconclusive: 8.08% [at 80.4 µM]
same,Potency,[2],"inconclusive: 62.2 µM [falling, partial curve, poor fit]"
CCN(O)CC,Potency,[1],inactive
same,Potency,[9],"inconclusive: 0.17 µM [cytotoxic, full curve, poor fit]"
same,activation,[2],inconclusive: 1.41%
Cc1ccc(C)c(OCCCC(C)(C)C(=O)O)c1,"ratio activity, negative = inhibition",[13]; at 62 µM (top of the series),inconclusive: -21.1%
same,"ratio activity, negative = inhibition",[13]; at 80.4 µM (top of the series),inconclusive: -21.9%
CCCCOC(=O)c1ccccc1C(=O)OCC(CC)CCCC (stereo unspecified),Potency,[14],inactive
COC(=O)CCSCCC(=O)OC,Potency,[14],inactive
CC1(C)[C@@H]2CC[C@@]1(C)C(=O)C2,"activity change, negative = inhibition",[11]; at 61 µM (top of the series),inactive: 10.5% and inactive: 4.39%
CN(C)CCCN,"activity change, negative = inhibition",[11]; at 78.8 µM (top of the series),inactive: 2.44%
CC(C)c1ccccc1C(C)C,Potency,[11]; [17],inactive
same,Potency,[2],inconclusive: 49 µM [activator]
NCc1ccccc1,Potency,[10],"inconclusive: 0.138 µM [falling, full curve, poor fit]"
same,Potency,[2],inactive
CCC(C)(CCC(C)C)C(=O)O (stereo unspecified),Potency,[15],inactive
same,Potency,[10],inactive
same,Potency,[2],inactive
O=C1CCN(c2ccccc2)N1,Potency,[15],"inconclusive: 1.74 µM [cytotoxic, full curve]"
same,Potency,[8],"inconclusive: 17.4 µM [cytotoxic, partial curve]"
same,Potency,[12],"inconclusive: 24.6 µM [cytotoxic, partial curve]"
same,Potency,[2],inconclusive: 19.6 µM [activator]
CN(C)CCCNCCCN,Potency,[16],"inconclusive: 27.2 µM [rising, partial curve]"
C1CCC2OC2C1 (stereo unspecified),activation,[16],inconclusive: 18.7% [at 94.8 µM]
CN1[C@@H]2CC[C@@H]1CC(OC(=O)C(CO)c1ccccc1)C2 (stereo partly specified),Potency,[10],inactive
same,Potency,[2],inactive
OCC(O)CS (stereo unspecified),"activity change, negative = inhibition",[11]; [17],inconclusive: -0.637%
same,"activity change, negative = inhibition",[11]; at 78.8 µM (top of the series),inactive: -0.459%
same,"viability change, negative = cytotoxic",[12],inconclusive: 8.72% [cytotoxic] [at 78.8 µM]
same,Potency,[2],inactive
CC[N+](CC)(CC)CCOc1cccc(OCC[N+](CC)(CC)CC)c1OCC[N+](CC)(CC)CC,Potency,[7],"inconclusive: 13.3 µM [rising, single point]"
same,"activity change, negative = inhibition",[11]; [17],inconclusive: -13.5%
same,Potency,[2],inactive
CCCCc1ccc(N)cc1,Potency,[10],"inconclusive: 61.7 µM [rising, single point]"
same,Potency,[11]; [17],inactive
same,Potency,[2],inactive
CCCC(=O)OCc1ccccc1,Potency,[14],inactive
same,Potency,[11]; [17],"inconclusive: 30.9 µM [activator, partial curve, poor fit]"
same,Potency,[2],inactive
C=CCOC(=O)CC(C)C,"activity change, negative = inhibition",[11]; [17],inconclusive: 5.81%
same,Potency,[8],inactive
same,Potency,[2],inactive
CC(=O)c1sc(C)nc1C,Potency,[8],"inconclusive: 54.9 µM [cytotoxic, partial curve, poor fit]"
same,Potency,[12],"inconclusive: 1.74 µM [cytotoxic, single point]"
same,Potency,[2],inactive
Brc1c(NC2=NCCN2)ccc2nccnc12,Potency,[11]; [17],inactive
same,Potency,[2],inactive
COc1cc(C=O)ccc1OC(=O)C(C)C,"activity change, negative = inhibition",[11]; [17],inconclusive: 20.7%
same,Potency,[2],inactive
